{
  "source": "patent US20040063695A1",
  "about": "“Cystic fibrosis transmembrane conductance regulator protein inhibitors and uses thereof” (priority 2002, published 2004)",
  "target": "ATP-sensitive K+ channels (K-ATP channel) (Rattus norvegicus, UniProt Q09429)",
  "note": "Like-named read-outs stand apart in the source and are kept apart here.",
  "data": [
    {"substance": "3-[(3-trifluoromethyl)phenyl]-5-[(4-carboxyphenyl)methylene]-2-thioxo-4-thiazolidinone [CFTRinh-172]", "values": [
      {"measurement": "effect on membrane potential", "setting": "5 μM", "value": "small hyperpolarization"},
      {"measurement": "effect on membrane potential", "setting": "2 and 5 μM", "value": "did not depolarize membrane potential"}
    ]}
  ]
}
